Test results: the RNAGym collection of RNA variant scans (doi:10.1073/pnas.2313332121)
Variants at the background level are over-represented here.

B1: TPR 5TU (parent)
chain: GGAUCUUCUCGAUCUAACAAAAAAGACAAAUCUGCCACAAAGCUUGAGAGCAUCUUCGGAUGCAGAGGCGGCAGCCUUCGGUGGCGCGAUAGCGCCAACGUUCUCAACUAUGACACGCAAAACGCGUGCUCCGUUGAAUGGAGUUUAUCAUG

Variants of: B1
Assay: polymerase ribozyme fitness, log enrichment relative to wild type (log ratio); higher = more active; in vitro selection for triplet polymerase activity
In short: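 Fitness is a logarithmic measure of how a genotype enriched relative to the wild type, with replicate averages weighted by inverse variance. The logarithm uses base 2, and enrichment came from Illumina sequencing of input and output libraries. Those libraries were PCR-built, transcribed mutants of each subunit of a heterodimeric triplet polymerase ribozyme, passed through one triplicate in vitro selection round that included frozen incubation at −7 °C, gel excision of extended constructs and streptavidin-bead capture. Genotypes were kept only if they had ≥10 input reads and ≥1 read per output.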

Point of comparison: U56A U130A, “polymerase ribozyme fitness (log ratio)” value -2.03. Against it:
- U56A U61G C85A A137U — lower, ≤ -4.2
- G58C C76A G83U — lower, -2.66
- C57A U102G C108A C132U — lower, ≤ -4.2
- U56G G136A — higher, 0.0437
- G58A C69G C96G A110G A113C G140A A150C — lower, ≤ -4.2
- U56A G74A A138G — lower, ≤ -4.2
- U56C C79U — higher, -1.8
- U56A G81A C87G U101C C105G — lower, ≤ -4.2
- C57A C76A C87U G100C — lower, ≤ -4.2
- U56A C96U A119U — higher, -0.585
- C57A G86C G88U G117C G133U G141C — lower, ≤ -4.2
- C57U U61A C72G — lower, ≤ -4.2
- G58A A64U G92C — lower, ≤ -4.2
- C57U C76U A91U C93G C132A — lower, ≤ -4.2
- C57A G58A G59A C85U C103G A110C A113G U145A — lower, ≤ -4.2
- U56A U78A A121C — lower, ≤ -4.2
- C57U A73C C87A C105G A147G — lower, ≤ -4.2
- C57U U61A C79A G92C — lower, ≤ -4.2
- C57U U78A G92U — lower, ≤ -4.2
- G58A U78G C87U — lower, ≤ -4.2
- G58A C79U — higher, -1.65
- G58A C96U — higher, 0.538
- U56C G74C C85A G100C — lower, ≤ -4.2
- U56C C93U U101G C103U G136C — lower, -4.09
- U56G G59A G81U A89C G92U U139A — lower, ≤ -4.2
- C57A A66U C87U C105G U148G — lower, ≤ -4.2
- C57U A64C U78G A121G — lower, ≤ -4.2
- C57G A91U A119U G143U — lower, ≤ -4.2
- G58C A60C G94A G100C C103A — lower, ≤ -4.2
- U56G G83A C87G C116G G140C — lower, ≤ -4.2
- G58A C105G G124U U135G — lower, ≤ -4.2
- C57U C76G A115C A150G — lower, ≤ -4.2
- U56G G59C G68U U90G U134A — lower, ≤ -4.2
- U56A U101G — higher, 0.0793
- C57U G100A C118A — lower, ≤ -4.2
- C57U C95G U151C — lower, ≤ -4.2
- C57G C87U A89C C116A C132A — lower, -4.13
- C57U G92A U104G C116U — lower, ≤ -4.2
- G58C C79U U134G — lower, ≤ -4.2
- C57G A113G — lower, -3.44
- C57A G68U A138C A150U — lower, ≤ -4.2
- U56A G92A C93U C103A U139A — lower, ≤ -4.2
- C57G C69G U101G C118U — lower, -2.81
- C57U G68U U77A G94A C116U G140A — lower, ≤ -4.2
- U56C C75U A91U — lower, ≤ -4.2
- U56G G68A A115G C118A G124C G143U — lower, ≤ -4.2
- C57U C85U C87U U144G — higher, -0.0249
- C57G U77A C87U A110C — lower, ≤ -4.2
- U56A G80C G88C G141A — lower, ≤ -4.2
- G58A C63A C72G G84C G88U G126C G133A — lower, ≤ -4.2
- C57U G62A G92A A115C G133A G141C — lower, ≤ -4.2
- C57A U101G — higher, 0.71
- U56G G58A C63G U101G A120U — lower, -2.56
- C57U C93G G100A U109A C114G — lower, ≤ -4.2
- C57U G71C G83A G86A A98U A107U U127G G133C — lower, ≤ -4.2
- G58A C149A — lower, -3.67
- C57U C123G C129A G140C — lower, ≤ -4.2
- C57U G84U C125U U151A — lower, ≤ -4.2
- C57U C95G A120G G143A — within 0.2 log units, -2.18
- C57A C79U C93U A98U A147U — lower, -3.03
- C57G C87A U144C — lower, -3.75
- G58C C85G U90A U139A G140U — lower, ≤ -4.2
- G58C A73U G92A A97U C116A A150G — lower, ≤ -4.2
- G58A C85U A106G — higher, -0.0661
- U56A C103A A137U — lower, ≤ -4.2
- U56G G65A C76A G83A U127A — lower, ≤ -4.2
- C57U A89C C96G A97U C114U C125G G136A A137G — lower, ≤ -4.2
- U56C U102G A142G — lower, -3.95
- U56A G62C C79U A91C C116A A122C A142C G143A U151A — lower, ≤ -4.2
- G58A A89G A110G C116G — lower, ≤ -4.2
- C57A C69A U127A — lower, ≤ -4.2
- U56A U82G C87G A91C — lower, ≤ -4.2
- G58A A91U C116U A138C — lower, ≤ -4.2
- G58A C79A C87A A89U — lower, ≤ -4.2
- U56G C85U — higher, -1.42
- C57A U77G G88U C96U A137C U144A — lower, ≤ -4.2
- C57U C85A C108U — lower, ≤ -4.2
- G58A U77A — lower, ≤ -4.2
- U56A G65A G88C — lower, ≤ -4.2
- U56G U102C — within 0.2 log units, -1.91
- U56A U77C G84A U144A — lower, ≤ -4.2
- U56A G65A C75A C85U U148G — lower, ≤ -4.2
- U56A U82C C85G G128U G141C — lower, ≤ -4.2
- C57A C129U G141A — lower, ≤ -4.2
- C57A U61A C87A C103G A115C G141C C149G — lower, ≤ -4.2
- U56A U61A — higher, -1.51
- G58C G59C G68A U77C C87A G143C — lower, ≤ -4.2
- G58A C72U A89C C95U G126U G141C U145A C149A — lower, ≤ -4.2
- U56A U61A G140A — lower, ≤ -4.2
- C57G C75G U78A — lower, ≤ -4.2
- C57U G71C G92A A150C — lower, ≤ -4.2
- G58C C76G G92C — lower, ≤ -4.2
- U56A G83C A122G G152U — lower, -3.94
- U56A C108U U148G — lower, ≤ -4.2
- C57A G74U G88U A115G A119U U145G C149G — lower, ≤ -4.2
- U56G A60C G81A G94U A106G — lower, -3.84
- U56A U145G — higher, -0.287
- U56C G58A A60U C99G A115C A122G — lower, ≤ -4.2
- C57U A66G G92U A150U — lower, ≤ -4.2
- U56A G59C C85U G86A G92A — lower, ≤ -4.2
- U56A G81A G126U U135C A138C G141C — lower, ≤ -4.2
- U56A C96U G126A — higher, -0.336
- U56A G74U C85G G133U — lower, ≤ -4.2
- C57A U61A G92U G94U U104A A106G C149U — lower, ≤ -4.2
- C57U G71C G84A A119C G124C — lower, ≤ -4.2
- C57U U101A A107C — lower, ≤ -4.2
- G58C A66C G67A A89C U111C C116A C129G U148A — lower, ≤ -4.2
- C57U U61A C87A C96U — lower, ≤ -4.2
- U56A G74A C85G A107U G126U — lower, ≤ -4.2
- G58A C95U G143C — within 0.2 log units, -1.9
- G58A A73U C96U — higher, -0.178
- C57G C79A — lower, ≤ -4.2
- C57A C95U A98G G140C U144G — lower, ≤ -4.2
- G58A C85A C125U G143C — lower, ≤ -4.2
- U56A G59U A89G C99A A137U U145A — lower, ≤ -4.2
- G58A C87G C116A A147C U151A — lower, ≤ -4.2
- G58C A64U G133A — lower, ≤ -4.2
- C57G G71U C85U C93U A106G C114G G152A — lower, ≤ -4.2
- C57A G141A G152U — lower, -3.49
- C57A G140A — lower, ≤ -4.2
- C57U G86A C99G — lower, -3.33
- U56C C57U C103G A107C U127A G140U — lower, ≤ -4.2
- U56C C85G C149A — lower, ≤ -4.2
- G58C C72A A110C A147G A150C — lower, ≤ -4.2
- G58A G84A U104A C108G G112A — lower, ≤ -4.2
- G58C C85U G117U — higher, -0.00983
- G58A C87A — lower, ≤ -4.2
- G58C C95U — higher, -0.651
- C57U C85U C96U U127G A150U — lower, ≤ -4.2
- U56A G68C U77A C96G U104G C108U G141C — lower, ≤ -4.2
- C57U G124U G128U — lower, -3.76
- C57G G59A G80U G92U C99A C131U U135A — lower, -3.22
- G58A C76U U101G — higher, 0.481
- G58A U61A C87A G117A — lower, ≤ -4.2
- U56G G71C C123G — lower, -3.58
- G58A G59A A66U C93U A97C — lower, ≤ -4.2
- G58A G83A U139A A142U — lower, ≤ -4.2
- G58C A73G U101C C125G — higher, -0.932
- G58A G143U — higher, -1.82
- C57A U61G U78G G88A U148A — lower, ≤ -4.2
- C57U G83C U101G A106C G128U — lower, ≤ -4.2
- C57A G62A G86A A113G A120U U127C G136A A142C — lower, ≤ -4.2
- G58C A89C C95U A107C — lower, ≤ -4.2
- U56A C96U U101C U139G — higher, -0.437
- C57G G67A G84U C85A G92U G141A — lower, ≤ -4.2
- G58C C87A U104G A115G — lower, ≤ -4.2
- C57A U61A C132G A137G — lower, ≤ -4.2
- C57G C85G G88A C125G U145A — lower, ≤ -4.2
- C57U G83A C99A — lower, -2.32
- U56C A66U U82A C87U C93U — lower, ≤ -4.2
- C57U C103G — higher, -1.7
- U56A G74A A110G — lower, ≤ -4.2
- C57U C95A G136A — higher, -0.1
- G58A C76A C87U A115U G141C — lower, ≤ -4.2
- U56G G65C G67C C85A C93G C118U C149A — lower, ≤ -4.2
- U56A C79U G92U C99G — lower, ≤ -4.2
- G58A C85G A115G — lower, -2.89
- C57G C76U G88A G92U — lower, -3.96
- C57A C93A — within 0.2 log units, -2.04
- U56A C96A A138G — lower, ≤ -4.2
- C57U G86A A120G G141C — lower, -2.82
- C57U G117C A122G — higher, 0.204
- G58A C85A C108A — lower, ≤ -4.2
- C57U G59A G67C G94C G140U — lower, ≤ -4.2
- G58A A91G G136U — lower, ≤ -4.2
- C57U G88C G140U — lower, ≤ -4.2
